Measured values published in US20220267438A1 (Janssen / Centocor, published 2022).

T1: human BCMA (B cell maturation antigen, TNFRSF17) on cells (human, UniProt Q02223 1-184)
T1 construct: whole, on cells; Target on H929 or MM.1R GPRC5D knockout cells, K562 cells expressing human BCMA, HEK293 cells of the cell microarray, and BCMA-only lymphoma lines; also called CD269; surface BCMA
T1 sequence (looked up): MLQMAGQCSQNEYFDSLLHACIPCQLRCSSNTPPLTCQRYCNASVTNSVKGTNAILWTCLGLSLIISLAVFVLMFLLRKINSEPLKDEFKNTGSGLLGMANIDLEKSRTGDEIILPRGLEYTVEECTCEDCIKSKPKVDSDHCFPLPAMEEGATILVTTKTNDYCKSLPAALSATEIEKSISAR

T2: bt-BCMA (biotinylated BCMA, Octet) (UniProt Q02223 1-54, limits assumed, biotinylated (site not given))
T2 construct: Also used for the row 'BCMA' of the Octet serum interference test of BGCB463, where the reagent is not described; also called BCMA (Octet serum interference)
T2 sequence (looked up): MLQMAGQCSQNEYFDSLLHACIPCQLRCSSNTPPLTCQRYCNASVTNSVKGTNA


Tests used:
[1] = target: T1, human BCMA (B cell maturation antigen, …); assay: flow cytometry, H929-GPRC5D-KO cells (BCMA arm), 1 h 37C; Run 3
Procedure: Flow cytometry was used to evaluate the BCMA and GPRC5D arm binding of BGCB491 in vitro. BGCB491 and isotype control were tested on a panel of H929-WT, H929-BCMA-KO, H929-GPRC5D-KO, and H929-BCMA/GPRC5D-KO cell lines after 1-hour 37° C. incubation.

[2] = target: T3, human CD3 (CD3ε of the TCR/CD3 complex) on primary human pan T cells (human, UniProt P07766); assay: flow cytometry, pan T cells, donor D203727; estimated, fixed saturation point from bioinformatic extrapolation
T3 construct: whole, on cells; On T cells CD3ε stands in the whole TCR/CD3 complex
T3 sequence (P07766 23-207, one chain of several): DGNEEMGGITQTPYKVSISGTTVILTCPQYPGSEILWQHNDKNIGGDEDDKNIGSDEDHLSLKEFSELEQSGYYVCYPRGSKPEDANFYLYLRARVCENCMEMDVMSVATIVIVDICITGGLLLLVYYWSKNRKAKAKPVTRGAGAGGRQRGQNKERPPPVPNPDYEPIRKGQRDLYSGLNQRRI
Procedure: Flow cytometry was used to evaluate the CD3 arm (i.e., CD3B376) binding of BGCB491 to CD3⁺ pan T cells from 7 different healthy human. Cell-based EC₅₀ for CD3B376 could not be determined due to lack of saturation kinetics at 1 hour (FIG. 26). Bioinformatic extrapolation was performed (FIG. 27) using the CD3B376×Null control antibody (i.e., GCDB381) molecule, which saturates within 2 μM top concentration dose-response to constrain the top of the non-linear regression curve to generate a full curve that enables estimation of ECₓ values (Table 21).

[3] = target: T3, human CD3 (CD3ε of the TCR/CD3 complex) …; assay: flow cytometry on Pan T cells, donor D329335, 1 hr at 4 C, AF647 secondary detection
Procedure: For binding of BGCB463 to human and cynomolgus Pan T cells, three human donors (Hemacare) were selected, quickly thawed, resuspended, and aliquoted into a 96-well plate at 1×10⁶ cells/mL. Cells were then washed, Fc blocked if necessary (Innovex), and stained with viability dye (Invitrogen). BGCB463 and its corresponding isotype (B23B251) were diluted in complete media to an initial concentration of 2 μM and 1:3 serial dilutions in duplicate were performed for a dose-response curve. The cells were incubated with molecules at 4° C. or 37° C. for 1 hour. When necessary, incubation with 90% human serum (Sigma) was also performed as described above.
First, FACS-based binding for GPRC5D and BCMA binding arms of the trispecific molecule was determined by measuring the effective concentration (EC) range from a dose-response curve using a 4-parameter fit at 37° C. for 1 hr. This was assessed using an H929 suite of cells (WT, GPRC5D-KO, BCMA-KO, and GPRC5D/BCMA KO), and a similar MM.1R suite. Cell based EC₅₀ is approximately 13 nM for WT H929 (FIGS. 2A-2D, Table 7) and 2.4 nM for WT MM.1R (FIGS. 3A-3D, Table 8). […] Next, cell-based EC₅₀ was determined for the CD3-binding Fab arm using purified Pan T cells from three random donors. […] Next, dose responsive binding was assessed at 4° C. to remove any potential biological effects. […]

[4] = target: T1, human BCMA (B cell maturation antigen, …); assay: flow cytometry on MM.1R GPRC5D KO cells (BCMA arm), 1 hr 37 C, AF647 secondary detection
Procedure: (§1) First, FACS-based binding for GPRC5D and BCMA binding arms of the trispecific molecule was determined by measuring the effective concentration (EC) range from a dose-response curve using a 4-parameter fit at 37° C. for 1 hr. This was assessed using an H929 suite of cells (WT, GPRC5D-KO, BCMA-KO, and GPRC5D/BCMA KO), and a similar MM.1R suite. Cell based EC₅₀ is approximately 13 nM for WT H929 (FIGS. 2A-2D, Table 7) and 2.4 nM for WT MM.1R (FIGS. 3A-3D, Table 8). A clear avidity affect is observed as EC₅₀ and Bmax are both reduced in GPRC5D-KO and BCMA-KO lines which test monovalent binding of target binding arms (Table 7). Next, cell-based EC₅₀ was determined for the CD3-binding Fab arm using purified Pan T cells from three random donors. […] Next, dose responsive binding was assessed at 4° C. to remove any potential biological effects. As shown in FIGS. 5A-5C, binding is stronger (50-100 nM) at 4° C., compared to 37° C., which may indicate internalization. Additionally, two expression lots of BGCB463 (BGCB463.003 from transient transfection and BGCB463.004 from a stable transfection pool), were directly compared with binding to H929, MM.1R, and Pan T cells and no differences were noted (FIGS. 6A-6C).

[5] = target: T2, bt-BCMA (biotinylated BCMA, Octet); assay: Octet, association rate in buffer against 50% human serum
[6] = target: T4, human GPRC5D (G-protein coupled receptor family C group 5 member D) on cells (human, UniProt Q9NZD1 1-345); assay: flow cytometry, H929 BCMA KO cells, 1 h 37C; Run 2
T4 construct: Target on H929 or MM.1R BCMA knockout cells, K562 cells expressing human GPRC5D and HEK293 cells of the cell microarray
T4 sequence (Q9NZD1 whole entry): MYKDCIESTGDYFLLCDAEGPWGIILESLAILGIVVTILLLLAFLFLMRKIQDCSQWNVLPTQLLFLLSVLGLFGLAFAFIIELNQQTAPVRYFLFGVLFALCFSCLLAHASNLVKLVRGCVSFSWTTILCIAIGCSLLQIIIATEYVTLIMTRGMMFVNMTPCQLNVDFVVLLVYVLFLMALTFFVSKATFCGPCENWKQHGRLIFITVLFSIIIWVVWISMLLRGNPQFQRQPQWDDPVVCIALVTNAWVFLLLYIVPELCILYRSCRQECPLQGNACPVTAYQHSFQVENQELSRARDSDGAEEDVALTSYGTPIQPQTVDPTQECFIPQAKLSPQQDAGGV
Procedure: as §1

[7] = target: T1, human BCMA (B cell maturation antigen, …); assay: flow cytometry on K562 cells expressing human BCMA, 1 hr 37 C, Run 2
Procedure: FIGS. 9A-E. BGCB463 (circles) or negative control B23B251 (triangles) were all incubated with K562 cells expressing human GPRC5D (FIG. 9A), human BCMA (FIG. 9B), cynomolgus GPRC5D (FIG. 9C) or cynomolgus BCMA (FIG. 9D) for 1 hr at 37° C. at a starting concentration of 2 μM. After secondary detection with AF647-anti-human IgG, the MFI signal was analyzed to generate an EC₅₀ and EC₉₀ (FIG. 9E). Data are representative of two independent experiments.
The GPRC5D (i.e., GC5B680) and BCMA binding arms were assessed for cross-reactivity to cynomolgus monkey as part of the BGCB463 molecule, which uses the identical binding arms as BGCB491. Cross reactivity to cynomolgus monkeys was profiled for both target-binding scFv arms using FACS-based cell binding at 37° C. for 1 hour with K562 stably expressing human or cynomolgus monkey GPRC5D or BCMA. The cell-based EC₅₀ value for the GC5B680 scFv arm was approximately 30 nM against human GPRC5D-expressing cells and about 10-fold weaker (approximately 400 nM) on cynomolgus monkey GPRC5D-expressing cells.

| Binder | EC50 [1] [nM] | EC50 [2] [µM] | EC50 (read off the curve) [3] [µM] | EC50 (read off the curve) [4] [nM] | ka buffer/ka serum [5] | EC50 [6] [nM] | EC50 [7] [nM] |
| --- | --- | --- | --- | --- | --- | --- | --- |
| BGCB491 (other, Trispecific IgG1 antibody (L234A, L235A, D265S); Heavy chain 1 = anti-CD3 (CD3B376) Fab heavy chain, hole and RF mutations, with C-terminal anti-GPRC5D scFv (GC5B680); Heavy chain 2 = anti-BCMA scFv (BCMB519) - Fc knob; also called JNJ-79635322; BCMA×GPRC5D×CD3 trispecific mAb) heavy: QVQLQQSGPRLVRPSQTLSLTCAISGDSVFNNNAAWSWIRQSPSRGLEWLGRTYYRSKWLYDYAVSVKSRITVNPDTSRNQFTLQLNSVTPEDTALYYCARGYSSSFDYWGQGTLVTVSSASTKGPSVFPLAPSSKSTSGGTAALGCLVKDYFPEPVTVSWNSGALTSGVHTFPAVLQSSGLYSLSSVVTVPSSSLGTQTYICNVNHKPSNTKVDKKVEPKSCDKTHTCPPCPAPEAAGGPSVFLFPPKPKDTLMISRTPEVTCVVVSVSHEDPEVKFNWYVDGVEVHNAKTKPREEQYNSTYRVVSVLTVLHQDWLNGKEYKCKVSNKALPAPIEKTISKAKGQPREPQVYTLPPSREEMTKNQVSLSCAVKGFYPSDIAVEWESNGQPENNYKTTPPVLDSDGSFFLVSKLTVDKSRWQQGNVFSCSVMHEALHNRFTQKSLSLSPGKGGGGSGGGGSGGGGSGGGGS[letters of about 100 residues not shown]QFPHTFGQGTKLEIKGGSEGKSSGSGSESKSTGGSQVTLKESGPVLVKPTETLTLTCTVSGFSLTNIRMSVSWIRQPPGKALEWLAHIFSNDEKSYSTSLKSRLTISRDTSKSQVVLTLTNVDPVDTATYYCARMRLPYGMDVWGQGTTVTVSS light: QSALTQPASVSGSPGQSITISCTGTSSNIGTYKFVSWYQQHPDKAPKVLLYEVSKRPSGVSSRFSGSKSGNTASLTISGLQAEDQADYHCVSYAGSGTLLFGGGTKLTVLGQPKAAPSVTLFPPSSEELQANKATLVCLISDFYPGAVTVAWKADSSPVKAGVETTTPSKQSNNKYAASSYLSLTPEQWKSHRSYSCQVTHEGSTVEKTVAPTECS EIVLTQSPGTLSLSPGERATLSCRASQSISSSFLTWYQQKPGQAPRLLIYGASSRATGIPDRFSGGGSGTDFTLTISRLEPEDFAVYYCQHYGSSPMYTFGQGTKLEIKGGSEGKSSGSGSESKSTGGS[letters of about 100 residues not shown]DEGYSSGHYYGMDVWGQGTTVTVSSEPKSSDKTHTCPPCPAPEAAGGPSVFLFPPKPKDTLMISRTPEVTCVVVSVSHEDPEVKFNWYVDGVEVHNAKTKPREEQYNSTYRVVSVLTVLHQDWLNGKEYKCKVSNKALPAPIEKTISKAKGQPREPQVYTLPPSREEMTKNQVSLWCLVKGFYPSDIAVEWESNGQPENNYKTTPPVLDSDGSFFLYSKLTVDKSRWQQGNVFSCSVMHEALHNHYTQKSLSLSPGK | 224 | 3.37 |  |  |  |  |  |
| BGCB463 (other, Trispecific IgG1 antibody (L234A, L235A, D265S); Heavy chain 1 = anti-CD3 (CD3B376) Fab heavy chain with hole and RF mutations; also called BGCB463.003; BGCB463.004) heavy: QVQLQQSGPRLVRPSQTLSLTCAISGDSVFNNNAAWSWIRQSPSRGLEWLGRTYYRSKWLYDYAVSVKSRITVNPDTSRNQFTLQLNSVTPEDTALYYCARGYSSSFDYWGQGTLVTVSSASTKGPSVFPLAPSSKSTSGGTAALGCLVKDYFPEPVTVSWNSGALTSGVHTFPAVLQSSGLYSLSSVVTVPSSSLGTQTYICNVNHKPSNTKVDKKVEPKSCDKTHTCPPCPAPEAAGGPSVFLFPPKPKDTLMISRTPEVTCVVVSVSHEDPEVKFNWYVDGVEVHNAKTKPREEQYNSTYRVVSVLTVLHQDWLNGKEYKCKVSNKALPAPIEKTISKAKGQPREPQVYTLPPSREEMTKNQVSLSCAVKGFYPSDIAVEWESNGQPENNYKTTPPVLDSDGSFFLVSKLTVDKSRWQQGNVFSCSVMHEALHNRFTQKSLSLSPGK light: QSALTQPASVSGSPGQSITISCTGTSSNIGTYKFVSWYQQHPDKAPKVLLYEVSKRPSGVSSRFSGSKSGNTASLTISGLQAEDQADYHCVSYAGSGTLLFGGGTKLTVLGQPKAAPSVTLFPPSSEELQANKATLVCLISDFYPGAVTVAWKADSSPVKAGVETTTPSKQSNNKYAASSYLSLTPEQWKSHRSYSCQVTHEGSTVEKTVAPTECS [letters of about 100 residues not shown]QFPHTFGQGTKLEIKGGSEGKSSGSGSESKSTGGSQVTLKESGPVLVKPTETLTLTCTVSGFSLTNIRMSVSWIRQPPGKALEWLAHIFSNDEKSYSTSLKSRLTISRDTSKSQVVLTLTNVDPVDTATYYCARMRLPYGMDVWGQGTTVTVSSEPKSSDKTHTCPPCPAPEAAGGPSVFLFPPKPKDTLMISRTPEVTCVVVSVSHEDPEVKFNWYVDGVEVHNAKTKPREEQYNSTYRVVSVLTVLHQDWLNGKEYKCKVSNKALPAPIEKTISKAKGQPREPQVYTLPPSREEMTKNQVSLWCLVKGFYPSDIAVEWESNGQPENNYKTTPPVLDSDGSFFLYSKLTVDKSRWQQGNVFSCSVMHEALHNHYTQKSLSLSPGKGGSEGKSSGSGSESKSTGGSEIVLTQSPGTLSLSPGERATLSCRASQSISSSFLTWYQQKPGQAPRLLIYGASSRATGIPDRFSGGGSGTDFTLTISRLEPEDFAVYYCQHYGSSPMYTFGQGTKLEIKGGSEGKSSGSGSESKSTGGS[letters of about 100 residues not shown]DEGYSSGHYYGMDVWGQGTTVTVSS |  |  | ~0.03 | ~60 | 1.6 | 129 | 45.8 |
